Experimental data from the supplement of paper PMC9151546.
Repeats are few or missing, and single values can be far off.

Columns and labels:
[1] = tested on: CHO-K1; experiment: micronucleus frequency (% of nucleated events); higher = more micronuclei (genotoxic)
[2] = tested on: CHO-K1; experiment: hypodiploid nuclei frequency (% of nucleated events); higher = more hypodiploid events (aneugenic)
[3] = tested on: CHO-K1; experiment: relative survival (nuclei to bead ratio vs DMSO control) (% of vehicle control); higher = more surviving cells
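For hypodiploid nuclei frequency (% of nucleated events) in this document: hypodiploid nuclei gated on a flow cytometer with 488 nm excitation after SYTOX Green staining, cultures at 37 °C, positive controls vinblastine without S9 and cyclophosphamide with S9.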
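For micronucleus frequency (% of nucleated events) in this document: cells lysed with nuclei stained by SYTOX Green, then micronucleus-gated events counted against nucleated events by flow cytometry with 488 nm excitation.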
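For relative survival (nuclei to bead ratio vs DMSO control) in this document: Lysed-cell nuclei stained with SYTOX Green and counted against counting beads by flow cytometry at 488 nm excitation, with vinblastine (no S9) and cyclophosphamide (plus S9) as positive controls.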

Nc1ccc(Nc2ccccc2)cc1 [N-Phenyl-1,4-benzenediamine]
Conditions | hypodiploid nuclei frequency, [2] [%] | micronucleus frequency, [1] [%] | relative survival, [3]
concentration: 4.5 (µM), S9 metabolic activation: with S9, exposure time: 3-4 hours | 0.26 | 1.44 | 72
concentration: 4.5 (µM), S9 metabolic activation: without S9, exposure time: 24 hours | 3.1 | 2.3 | 79.7
concentration: 5.63 (µM), S9 metabolic activation: with S9, exposure time: 3-4 hours | 0.36 | 1.68 | 68.4
concentration: 5.63 (µM), S9 metabolic activation: without S9, exposure time: 24 hours | 2.08 | 2.8 | 68.3
concentration: 7.04 (µM), S9 metabolic activation: with S9, exposure time: 3-4 hours | 0.32 | 1.52 | 89.5
concentration: 7.04 (µM), S9 metabolic activation: without S9, exposure time: 24 hours | 4.68 | 4.1 | 74.4
concentration: 8.8 (µM), S9 metabolic activation: with S9, exposure time: 3-4 hours | 0.3 | 1.68 | 84.7
concentration: 8.8 (µM), S9 metabolic activation: without S9, exposure time: 24 hours | 2.32 | 3.48 | 82.1
concentration: 11 (µM), S9 metabolic activation: with S9, exposure time: 3-4 hours | 0.48 | 2.02 | 71.9
concentration: 11 (µM), S9 metabolic activation: without S9, exposure time: 24 hours | 5.14 | 4.18 | 73.6
concentration: 13.7 (µM), S9 metabolic activation: with S9, exposure time: 3-4 hours | 0.26 | 2.6 | 85.1
concentration: 13.7 (µM), S9 metabolic activation: without S9, exposure time: 24 hours | 5.18 | 4 | 67.2
concentration: 17.2 (µM), S9 metabolic activation: with S9, exposure time: 3-4 hours | 0.3 | 2.62 | 84.7
concentration: 17.2 (µM), S9 metabolic activation: without S9, exposure time: 24 hours | 4.68 | 3.48 | 58.2
concentration: 21.5 (µM), S9 metabolic activation: with S9, exposure time: 3-4 hours | 0.44 | 2.02 | 102
concentration: 21.5 (µM), S9 metabolic activation: without S9, exposure time: 24 hours | 4.8 | 4.06 | 78.3
concentration: 26.8 (µM), S9 metabolic activation: with S9, exposure time: 3-4 hours | 0.26 | 1.36 | 95.4
concentration: 26.8 (µM), S9 metabolic activation: without S9, exposure time: 24 hours | 13.1 | 2.8 | 41.4
concentration: 33.6 (µM), S9 metabolic activation: with S9, exposure time: 3-4 hours | 0.24 | 1.28 | 91.1
concentration: 33.6 (µM), S9 metabolic activation: without S9, exposure time: 24 hours | 10.7 | 3.34 | 42.1
concentration: 41.9 (µM), S9 metabolic activation: with S9, exposure time: 3-4 hours | 0.2 | 1.38 | 92
concentration: 41.9 (µM), S9 metabolic activation: without S9, exposure time: 24 hours | – | – | 30.8
concentration: 52.4 (µM), S9 metabolic activation: with S9, exposure time: 3-4 hours | 0.28 | 1.5 | 91.3
concentration: 52.4 (µM), S9 metabolic activation: without S9, exposure time: 24 hours | – | – | 40
concentration: 65.5 (µM), S9 metabolic activation: with S9, exposure time: 3-4 hours | 0.3 | 2.04 | 93.2
concentration: 65.5 (µM), S9 metabolic activation: without S9, exposure time: 24 hours | 4.92 | 1.48 | 42.7
concentration: 81.9 (µM), S9 metabolic activation: with S9, exposure time: 3-4 hours | 0.28 | 2 | 97
concentration: 81.9 (µM), S9 metabolic activation: without S9, exposure time: 24 hours | – | – | 29
concentration: 102 (µM), S9 metabolic activation: with S9, exposure time: 3-4 hours | 0.32 | 2.62 | 89.1
concentration: 102 (µM), S9 metabolic activation: without S9, exposure time: 24 hours | – | – | 16.1
concentration: 128 (µM), S9 metabolic activation: with S9, exposure time: 3-4 hours | 0.26 | 2.98 | 88.4
concentration: 128 (µM), S9 metabolic activation: without S9, exposure time: 24 hours | – | – | 5.06
concentration: 160 (µM), S9 metabolic activation: with S9, exposure time: 3-4 hours | 0.16 | 3.04 | 67.6
concentration: 160 (µM), S9 metabolic activation: without S9, exposure time: 24 hours | – | – | 0.5
concentration: 200 (µM), S9 metabolic activation: with S9, exposure time: 3-4 hours | 0.34 | 2.84 | 63
concentration: 200 (µM), S9 metabolic activation: without S9, exposure time: 24 hours | – | – | 0.01

O=C(O)C(F)(F)C(F)(F)C(F)(F)C(F)(F)C(F)(F)F [PFHxA]
Conditions | hypodiploid nuclei frequency, [2] [%] | micronucleus frequency, [1] [%] | relative survival, [3]
concentration: 4.5 (µM), S9 metabolic activation: with S9, exposure time: 3-4 hours | 0.38 | 0.78 | 94.9
concentration: 4.5 (µM), S9 metabolic activation: without S9, exposure time: 24 hours | 1.04 | 1.38 | 100
concentration: 5.63 (µM), S9 metabolic activation: with S9, exposure time: 3-4 hours | 0.44 | 1.22 | 87.4
concentration: 5.63 (µM), S9 metabolic activation: without S9, exposure time: 24 hours | 0.88 | 1.12 | 96.3
concentration: 7.04 (µM), S9 metabolic activation: with S9, exposure time: 3-4 hours | 0.22 | 1.1 | 74.4
concentration: 7.04 (µM), S9 metabolic activation: without S9, exposure time: 24 hours | 1.38 | 1.84 | 102
concentration: 8.8 (µM), S9 metabolic activation: with S9, exposure time: 3-4 hours | 0.28 | 1.7 | 90.6
concentration: 8.8 (µM), S9 metabolic activation: without S9, exposure time: 24 hours | 1.12 | 0.82 | 85.3
concentration: 11 (µM), S9 metabolic activation: with S9, exposure time: 3-4 hours | 0.24 | 1.42 | 92.2
concentration: 11 (µM), S9 metabolic activation: without S9, exposure time: 24 hours | 0.82 | 1.26 | 88.2
concentration: 13.7 (µM), S9 metabolic activation: with S9, exposure time: 3-4 hours | 0.32 | 1 | 85.5
concentration: 13.7 (µM), S9 metabolic activation: without S9, exposure time: 24 hours | 1.3 | 1.48 | 93.5
concentration: 17.2 (µM), S9 metabolic activation: with S9, exposure time: 3-4 hours | 0.3 | 1.24 | 104
concentration: 17.2 (µM), S9 metabolic activation: without S9, exposure time: 24 hours | 0.8 | 1.2 | 98.1
concentration: 21.5 (µM), S9 metabolic activation: with S9, exposure time: 3-4 hours | 0.38 | 0.86 | 99.3
concentration: 21.5 (µM), S9 metabolic activation: without S9, exposure time: 24 hours | 0.74 | 1.24 | 95.2
concentration: 26.8 (µM), S9 metabolic activation: with S9, exposure time: 3-4 hours | 0.36 | 1.08 | 131
concentration: 26.8 (µM), S9 metabolic activation: without S9, exposure time: 24 hours | 0.84 | 1.44 | 89.7
concentration: 33.6 (µM), S9 metabolic activation: with S9, exposure time: 3-4 hours | 0.34 | 1.16 | 137
concentration: 33.6 (µM), S9 metabolic activation: without S9, exposure time: 24 hours | 0.96 | 1.32 | 105
concentration: 41.9 (µM), S9 metabolic activation: with S9, exposure time: 3-4 hours | 0.38 | 0.9 | 107
concentration: 41.9 (µM), S9 metabolic activation: without S9, exposure time: 24 hours | 1.28 | 1.88 | 110
concentration: 52.4 (µM), S9 metabolic activation: with S9, exposure time: 3-4 hours | 0.28 | 1.14 | 119
concentration: 52.4 (µM), S9 metabolic activation: without S9, exposure time: 24 hours | 1.22 | 1.72 | 87.7
concentration: 65.5 (µM), S9 metabolic activation: with S9, exposure time: 3-4 hours | 0.38 | 1.06 | 120
concentration: 65.5 (µM), S9 metabolic activation: without S9, exposure time: 24 hours | 0.94 | 1.84 | 71
concentration: 81.9 (µM), S9 metabolic activation: with S9, exposure time: 3-4 hours | 0.44 | 1.4 | 96
concentration: 81.9 (µM), S9 metabolic activation: without S9, exposure time: 24 hours | 1.18 | 1.6 | 72.7
concentration: 102 (µM), S9 metabolic activation: with S9, exposure time: 3-4 hours | 0.42 | 1.42 | 112
concentration: 102 (µM), S9 metabolic activation: without S9, exposure time: 24 hours | 1.38 | 2.12 | 84.9
concentration: 128 (µM), S9 metabolic activation: with S9, exposure time: 3-4 hours | 0.26 | 1.06 | 101
concentration: 128 (µM), S9 metabolic activation: without S9, exposure time: 24 hours | 1.22 | 1.42 | 87.7
concentration: 160 (µM), S9 metabolic activation: with S9, exposure time: 3-4 hours | 0.38 | 1.56 | 105
concentration: 160 (µM), S9 metabolic activation: without S9, exposure time: 24 hours | 1.4 | 2.06 | 100
concentration: 200 (µM), S9 metabolic activation: with S9, exposure time: 3-4 hours | 0.28 | 1.32 | 107
concentration: 200 (µM), S9 metabolic activation: without S9, exposure time: 24 hours | 1.3 | 2.4 | 88.2
